In the supplement of paper PMC8728848:
This is one part of the list.

Experiments:
Experiment in all cases: glycan array binding signal (z-score within array); higher = stronger binding
Conditions in all cases: glycan notation: IUPAC condensed, linker removed; mutation: H59Q
[1] = biological target: Gal(b1-3)GlcNAc(b1-6)GalNAc
Method in brief: (§1)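 Columns mapping to the same glycan were averaged after glycan names were converted to IUPAC-condensed notation. The data come from 3228 arrays in the Consortium for Functional Glycomics database, limited to those with an available protein sequence. Binding is reported as a within-array Z-score averaged across arrays of one protein sequence and across linkers.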

[2] = biological target: Gal(b1-3)GlcNAc(b1-6)[Gal(b1-3)]GalNAc
Method in brief: as §1

Gal(b1-3)GlcNAc6S = biological target: Gal(b1-3)GlcNAc6S
Method in brief: as §1

[3] = biological target: Gal(b1-3)[Fuc(a1-4)]GlcNAc
Method in brief: as §1

[4] = biological target: Gal(b1-3)[Fuc(a1-4)]GlcNAc(b1-2)Man
Method in brief: as §1

[5] = biological target: Gal(b1-3)[Fuc(a1-4)]GlcNAc(b1-2)Man(a1-3)[Gal(b1-3)[Fuc(a1-4)]GlcNAc(b1-2)Man(a1-6)]Man(b1-4)GlcNAc(b1-4)[Fuc(a1-6)]GlcNAc
Method in brief: as §1

[6] = biological target: Gal(b1-3)[Fuc(a1-4)]GlcNAc(b1-3)Gal(b1-3)[Fuc(a1-4)]GlcNAc
Method in brief: as §1

[7] = biological target: Gal(b1-3)[Fuc(a1-4)]GlcNAc(b1-3)Gal(b1-4)[Fuc(a1-3)]GlcNAc
Method in brief: as §1

[8] = biological target: Gal(b1-3)[Fuc(a1-4)]GlcNAc(b1-6)GalNAc
Method in brief: as §1

[9] = biological target: Gal(b1-3)[GlcNAc(b1-6)]GalNAc
Method in brief: as §1

[10] = biological target: Gal(b1-3)[Neu5Ac(a2-6)]GalNAc
Method in brief: as §1

[11] = biological target: Gal(b1-3)[Neu5Ac(a2-6)]GlcNAc(b1-4)Gal(b1-4)Glc
Method in brief: as §1

[12] = biological target: Gal(b1-3)[Neu5Ac(b2-6)]GalNAc
Method in brief: as §1

Gal(b1-4)Gal = biological target: Gal(b1-4)Gal
Method in brief: as §1

[13] = biological target: Gal(b1-4)GalNAc(a1-3)[Fuc(a1-2)]Gal(b1-4)GlcNAc
Method in brief: as §1

[14] = biological target: Gal(b1-4)GalNAc(b1-3)[Fuc(a1-2)]Gal(b1-4)GlcNAc
Method in brief: as §1

Gal(b1-4)Glc = biological target: Gal(b1-4)Glc
Method in brief: as §1

Gal(b1-4)Glc6S = biological target: Gal(b1-4)Glc6S
Method in brief: as §1

Gal(b1-4)GlcNAc = biological target: Gal(b1-4)GlcNAc
Method in brief: as §1

[15] = biological target: Gal(b1-4)GlcNAc(a1-6)Gal(b1-4)GlcNAc
Method in brief: as §1

Gal(b1-4)GlcNAc(b1-2)Man = biological target: Gal(b1-4)GlcNAc(b1-2)Man
Method in brief: as §1

[16] = biological target: Gal(b1-4)GlcNAc(b1-2)Man(a1-3)Man(b1-4)GlcNAc(b1-4)GlcNAc
Method in brief: as §1

[17] = biological target: Gal(b1-4)GlcNAc(b1-2)Man(a1-3)[Gal(b1-4)GlcNAc(b1-2)Man(a1-6)]Man(b1-4)GlcNAc(b1-4)GlcNAc
Method in brief: as §1

[18] = biological target: Gal(b1-4)GlcNAc(b1-2)Man(a1-3)[Gal(b1-4)GlcNAc(b1-2)Man(a1-6)]Man(b1-4)GlcNAc(b1-4)[Fuc(a1-6)]GlcNAc
Method in brief: as §1

[19] = biological target: Gal(b1-4)GlcNAc(b1-2)Man(a1-3)[Gal(b1-4)GlcNAc(b1-2)Man(a1-6)][Gal(b1-4)GlcNAc(b1-4)]Man(b1-4)GlcNAc(b1-4)[Fuc(a1-6)]GlcNAc
Method in brief: as §1

[20] = biological target: Gal(b1-4)GlcNAc(b1-2)Man(a1-3)[Gal(b1-4)GlcNAc(b1-2)Man(a1-6)][GlcNAc(b1-4)]Man(b1-4)GlcNAc(b1-4)[Fuc(a1-6)]GlcNAc
Method in brief: as §1

[21] = biological target: Gal(b1-4)GlcNAc(b1-2)Man(a1-3)[GlcNAc(b1-2)Man(a1-6)]Man(b1-4)GlcNAc(b1-4)GlcNAc
Method in brief: as §1

[22] = biological target: Gal(b1-4)GlcNAc(b1-2)Man(a1-3)[GlcNAc(b1-4)][Gal(b1-4)GlcNAc(b1-2)Man(a1-6)]Man(b1-4)GlcNAc(b1-4)GlcNAc
Method in brief: as §1

[23] = biological target: Gal(b1-4)GlcNAc(b1-2)Man(a1-3)[Man(a1-6)]Man(b1-4)GlcNAc(b1-4)GlcNAc
Method in brief: as §1

[24] = biological target: Gal(b1-4)GlcNAc(b1-2)Man(a1-6)Man(b1-4)GlcNAc(b1-4)GlcNAc
Method in brief: as §1

[25] = biological target: Gal(b1-4)GlcNAc(b1-2)Man(a1-6)[GlcNAc(b1-2)Man(a1-3)]Man(b1-4)GlcNAc(b1-4)GlcNAc
Method in brief: as §1

[26] = biological target: Gal(b1-4)GlcNAc(b1-2)Man(a1-6)[Man(a1-3)]Man(b1-4)GlcNAc(b1-4)GlcNAc
Method in brief: as §1

[27] = biological target: Gal(b1-4)GlcNAc(b1-2)[Gal(b1-4)GlcNAc(b1-4)]Man(a1-3)[Gal(b1-4)GlcNAc(b1-2)Man(a1-6)]Man(b1-4)GlcNAc(b1-4)GlcNAc
Method in brief: as §1

[28] = biological target: Gal(b1-4)GlcNAc(b1-2)[Gal(b1-4)GlcNAc(b1-4)]Man(a1-3)[Gal(b1-4)GlcNAc(b1-2)[Gal(b1-4)GlcNAc(b1-6)]Man(a1-6)]Man(b1-4)GlcNAc(b1-4)GlcNAc
Method in brief: as §1

[29] = biological target: Gal(b1-4)GlcNAc(b1-2)[Gal(b1-4)GlcNAc(b1-4)]Man(a1-3)[GlcNAc(b1-4)][Gal(b1-4)GlcNAc(b1-2)Man(a1-6)]Man(b1-4)GlcNAc(b1-4)GlcNAc
Method in brief: as §1

[30] = biological target: Gal(b1-4)GlcNAc(b1-2)[Gal(b1-4)GlcNAc(b1-4)]Man(a1-3)[GlcNAc(b1-4)][Gal(b1-4)GlcNAc(b1-2)[Gal(b1-4)GlcNAc(b1-6)]Man(a1-6)]Man(b1-4)GlcNAc(b1-4)GlcNAc
Method in brief: as §1

[31] = biological target: Gal(b1-4)GlcNAc(b1-2)[Gal(b1-4)GlcNAc(b1-6)]Man(a1-6)[Gal(b1-4)GlcNAc(b1-2)Man(a1-3)]Man(b1-4)GlcNAc(b1-4)GlcNAc
Method in brief: as §1

[32] = biological target: Gal(b1-4)GlcNAc(b1-2)[Gal(b1-4)GlcNAc(b1-6)]Man(a1-6)[Gal(b1-4)GlcNAc(b1-2)Man(a1-3)]Man(b1-4)GlcNAc(b1-4)[Fuc(a1-6)]GlcNAc
Method in brief: as §1

[33] = biological target: Gal(b1-4)GlcNAc(b1-2)[Gal(b1-4)GlcNAc(b1-6)]Man(a1-6)[GlcNAc(b1-4)][Gal(b1-4)GlcNAc(b1-2)Man(a1-3)]Man(b1-4)GlcNAc(b1-4)GlcNAc
Method in brief: as §1

[34] = biological target: Gal(b1-4)GlcNAc(b1-2)[Gal(b1-4)GlcNAc(b1-6)]Man(a1-6)[GlcNAc(b1-4)][Gal(b1-4)GlcNAc(b1-2)[Gal(b1-4)GlcNAc(b1-4)]Man(a1-3)]Man(b1-4)GlcNAc(b1-4)[Fuc(a1-6)]GlcNAc
Method in brief: as §1

[35] = biological target: Gal(b1-4)GlcNAc(b1-3)Gal(b1-3)GalNAc
Method in brief: as §1

[36] = biological target: Gal(b1-4)GlcNAc(b1-3)Gal(b1-3)GlcNAc
Method in brief: as §1

[37] = biological target: Gal(b1-4)GlcNAc(b1-3)Gal(b1-4)Glc
Method in brief: as §1

[38] = biological target: Gal(b1-4)GlcNAc(b1-3)Gal(b1-4)GlcNAc
Method in brief: as §1

[39] = biological target: Gal(b1-4)GlcNAc(b1-3)Gal(b1-4)GlcNAc(b1-2)Man(a1-3)[Gal(b1-4)GlcNAc(b1-3)Gal(b1-4)GlcNAc(b1-2)Man(a1-6)]Man(b1-4)GlcNAc(b1-4)GlcNAc
Method in brief: as §1

B1: rAAL-H59Q (Agrocybe aegerita), Q6WY08 (protein)
chain: MQGVNIYNISAGTSVDLAAPVTTGDIVTFFSSALNLNAGAGNPNNTTLNLFAENGAYLLQIAFRLQENVIIFNSRQPDGPWLVEQRVSDVANQFAGIDGKAMVTVFDHGDKYQVVINEKTVIQYTKQISGLTLSLSYNATEETSIFSTVVEAVTYTGLALEHHHHHH
glycan array binding signal (z-score) [1]: -0.025 | glycan array binding signal (z-score) [2]: -0.143 | glycan array binding signal (z-score) (Gal(b1-3)GlcNAc6S): -0.066 | glycan array binding signal (z-score) [3]: -0.116 | glycan array binding signal (z-score) [4]: -0.094 | glycan array binding signal (z-score) [5]: -0.055 | glycan array binding signal (z-score) [6]: -0.086 | glycan array binding signal (z-score) [7]: -0.134 | glycan array binding signal (z-score) [8]: -0.102 | glycan array binding signal (z-score) [9]: -0.112 | glycan array binding signal (z-score) [10]: -0.095 | glycan array binding signal (z-score) [11]: -0.115 | glycan array binding signal (z-score) [12]: -0.098 | glycan array binding signal (z-score) (Gal(b1-4)Gal): -0.098 | glycan array binding signal (z-score) [13]: -0.088 | glycan array binding signal (z-score) [14]: -0.053 | glycan array binding signal (z-score) (Gal(b1-4)Glc): -0.097 | glycan array binding signal (z-score) (Gal(b1-4)Glc6S): 0.021 | glycan array binding signal (z-score) (Gal(b1-4)GlcNAc): -0.07 | glycan array binding signal (z-score) [15]: -0.046 | glycan array binding signal (z-score) (Gal(b1-4)GlcNAc(b1-2)Man): 0.03 | glycan array binding signal (z-score) [16]: -0.101 | glycan array binding signal (z-score) [17]: -0.098 | glycan array binding signal (z-score) [18]: -0.009 | glycan array binding signal (z-score) [19]: -0.084 | glycan array binding signal (z-score) [20]: -0.116 | glycan array binding signal (z-score) [21]: -0.101 | glycan array binding signal (z-score) [22]: -0.06 | glycan array binding signal (z-score) [23]: -0.059 | glycan array binding signal (z-score) [24]: -0.034 | glycan array binding signal (z-score) [25]: -0.072 | glycan array binding signal (z-score) [26]: 0.003 | glycan array binding signal (z-score) [27]: -0.107 | glycan array binding signal (z-score) [28]: -0.012 | glycan array binding signal (z-score) [29]: -0.111 | glycan array binding signal (z-score) [30]: -0.098 | glycan array binding signal (z-score) [31]: -0.032 | glycan array binding signal (z-score) [32]: -0.016 | glycan array binding signal (z-score) [33]: -0.134 | glycan array binding signal (z-score) [34]: -0.097 | glycan array binding signal (z-score) [35]: -0.179 | glycan array binding signal (z-score) [36]: -0.091 | glycan array binding signal (z-score) [37]: -0.055 | glycan array binding signal (z-score) [38]: -0.121 | glycan array binding signal (z-score) [39]: -0.11
